According to the supplement of paper PMC9446081:
In all, about 39,000 compounds went through this assay and about 220 (0.56%) showed activity. The list shows a part of the results.

tested on: Escherichia coli K-12 BW25113; experiment: relative growth (OD600 normalised to plate interquartile mean) (fraction); higher = less growth inhibition, active = 0.2 or less; settings: 50 µM; LB; incubation time: overnight (16-24 h)
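Further: static incubation at 37 °C against the wild-type strain, values averaged over two biological replicates.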

SMILES	relative growth
COc1ccccc1C#Cc1cnc2c(c1)C(=O)N([C@@H](C)CO)C[C@@H](C)[C@H](CN(C)C(=O)c1ccc3c(c1)OCO3)O2	inactive: 1.02
Cc1noc(C)c1S(=O)(=O)Nc1ccc2c(c1)C(=O)N([C@@H](C)CO)C[C@H](C)[C@H](CN(C)Cc1ccc(C(F)(F)F)cc1)OCCCC[C@@H](C)O2	inactive: 1.04
CC(C)NC(=O)Nc1ccc2c(c1)C(=O)N([C@H](C)CO)C[C@H](C)[C@@H](CN(C)S(=O)(=O)c1cn(C)cn1)OCCCC[C@@H](C)O2	inactive: 0.981
C[C@H]1CN([C@@H](C)CO)C(=O)c2cc(NC(=O)Nc3ccc4c(c3)OCO4)ccc2O[C@H]1CN(C)Cc1ccc(Oc2ccccc2)cc1	inactive: 1
CC(C)NC(=O)N[C@@H]1C=C[C@@H](CC(=O)O)O[C@H]1CO	inactive: 0.981
Cc1ccc(S(=O)(=O)N(C)C[C@@H]2Oc3ccc(NS(=O)(=O)c4ccc(F)cc4)cc3CC(=O)N([C@@H](C)CO)C[C@@H]2C)cc1	inactive: 0.996
COc1ccc(CN(C)C[C@H]2OCCCC[C@@H](C)Oc3ccc(NS(=O)(=O)c4ccccc4)cc3C(=O)N([C@@H](C)CO)C[C@@H]2C)cc1	inactive: 0.989
C[C@@H]1CCCCO[C@H](CN(C)C(=O)Nc2ccc(C(F)(F)F)cc2)[C@@H](C)CN([C@@H](C)CO)C(=O)c2cc(NC(=O)c3ccccc3)ccc2O1	inactive: 1.02
O=C(C[C@H]1CC[C@H]2[C@@H](COC[C@H](O)CN2C(=O)Nc2cccc(Cl)c2)O1)NCCCN1CCOCC1	inactive: 1.01
Cc1noc(C)c1NC(=O)Nc1ccc2c(c1)CC(=O)N([C@H](C)CO)C[C@H](C)[C@@H](CN(C)S(=O)(=O)c1cn(C)cn1)O2	inactive: 1
O=C(O)c1ccc(Nc2cn[nH]c(=O)n2)cc1O	inactive: 0.919
COCC(=O)Nc1ccc2c(c1)C(=O)N(C)C[C@@H](OC)[C@H](C)CN(C(=O)c1ccccc1F)[C@H](C)CO2	inactive: 0.99
Nc1nc(=O)c2nc(C(=O)O)cnc2[nH]1	inactive: 0.995
CO[C@@H](C(=O)N(C)C[C@@H]1OCc2ccccc2-c2c(n(C)c3ccccc23)C(=O)N([C@H](C)CO)C[C@@H]1C)c1ccccc1	inactive: 1
CN1C(=O)c2cc(NC(=O)C3CCOCC3)ccc2OC[C@H]2O[C@H](CC(=O)NCc3ccc4c(c3)OCO4)CC[C@H]21	inactive: 0.992
CC(C)NC(=O)Nc1cccc2c1O[C@H](CN(C)S(=O)(=O)c1ccccc1)[C@H](C)CN([C@H](C)CO)C2=O	inactive: 0.988
O=C(C[C@H]1CC[C@H]2[C@@H](COC[C@@H](O)CN2C(=O)c2ccc3c(c2)OCO3)O1)NCCN1CCCCC1	inactive: 0.981
C[C@@H]1CN([C@H](C)CO)C(=O)c2cc(C#Cc3ccccc3F)cnc2O[C@@H]1CN(C)S(=O)(=O)c1ccccc1	inactive: 1.05
C[C@@H]1CCCCO[C@@H](CN(C)CC2CCCCC2)[C@@H](C)CN([C@@H](C)CO)C(=O)c2cc(NS(=O)(=O)c3ccccc3)ccc2O1	inactive: 0.985

SMILES	relative growth
COc1ccc(CN(C)C[C@@H]2Oc3c(NC(=O)Nc4ccc(C(F)(F)F)cc4)cccc3C(=O)N([C@@H](C)CO)C[C@@H]2C)cc1	inactive: 0.971
COCC(=O)Nc1ccc2c(c1)[C@@H]1C[C@@H](CC(=O)N3CCOCC3)O[C@H](CO)[C@@H]1O2	inactive: 1
O=C(O)CCC(=O)Nc1ccccn1	inactive: 0.906
C=CCOC(=O)[C@H]1[C@@H]2C(=O)O[C@@H](c3ccccc3)[C@@H](c3ccccc3)N2[C@@H](c2ccc(OCCOC(=O)[C@H]3C[C@H]4C(=O)N[C@@H](CC(C)C)C(=O)N4[C@H]3c3cccc(OCCO)c3)cc2)[C@]12C(=O)Nc1ccccc12	inactive: 1.05
COc1ccc(S(=O)(=O)Nc2ccc3c(c2)C(=O)N([C@@H](C)CO)C[C@@H](C)[C@@H](CN(C)C(=O)Nc2cccc4ccccc24)OCCCC[C@H](C)O3)cc1	inactive: 1.03
C[C@@H]1CCCCO[C@H](CN(C)C(=O)Nc2ccc(F)cc2)[C@@H](C)CN([C@@H](C)CO)C(=O)c2cc(NS(=O)(=O)c3ccc(F)cc3)ccc2O1	inactive: 1.05
C[C@@H]1CN([C@H](C)CO)C(=O)CCCn2cc(nn2)CO[C@@H]1CN(C)Cc1ccc(C(=O)Nc2ccccc2N)cc1	inactive: 1
C[C@H]1CN([C@@H](C)CO)C(=O)c2cc(C#CC3CCCC3)cnc2O[C@@H]1CN(C)C(=O)Cc1ccccn1	inactive: 0.992
Cc1ccc(S(=O)(=O)Nc2ccc3c(c2)CC(=O)N([C@@H](C)CO)C[C@@H](C)[C@H](CN(C)CC2CC2)O3)cc1	inactive: 1.02
O=C(C[C@@H]1CC[C@@H]2[C@H](COC[C@@H](O)CN2C(=O)c2ccc(F)cc2)O1)NCCCN1CCOCC1	inactive: 1.03
C[C@H](CO)N1C[C@H](C)[C@@H](CN(C)C(=O)NC2CCCCC2)Oc2ccc(NS(C)(=O)=O)cc2CC1=O	inactive: 1.03
C[C@@H]1CN([C@@H](C)CO)C(=O)CCCn2cc(nn2)CO[C@H]1CN(C)S(=O)(=O)c1ccc2ccccc2c1	inactive: 1.01
C[C@H]1CN([C@@H](C)CO)C(=O)Cc2cc(NS(=O)(=O)c3ccc(F)cc3)ccc2O[C@H]1CN(C)S(=O)(=O)c1ccc(F)cc1	inactive: 0.986
CN1C(=O)CC(C)(c2ccccc2)C1=O (stereo not drawn)	inactive: 1.1
C[C@@H]1CN([C@@H](C)CO)C(=O)c2cc(C#CC3(O)CCCC3)cnc2O[C@@H]1CN(C)C(=O)Nc1ccc2c(c1)OCO2	inactive: 1.01
COc1ccc(S(=O)(=O)N(C)C[C@H]2Oc3ccc(NS(C)(=O)=O)cc3C(=O)N([C@H](C)CO)C[C@@H]2C)cc1	inactive: 0.999
O=C(c1ccccc1O)N1CCOCC1	inactive: 1
NNC(=O)c1ccc2c(=O)[nH][nH]c(=O)c2c1	inactive: 0.99
C[C@@H]1CN([C@H](C)CO)C(=O)c2cccc(NC(=O)c3nc4ccccc4s3)c2O[C@@H]1CN(C)S(=O)(=O)c1cn(C)cn1	inactive: 0.994
